Source: PubChem BioAssay AID1963576 (National Center for Advancing Translational Sciences (NCATS), 2024)
The whole screen tested about 46,000 compounds, of which about 60 (0.1%) were called active. Inconclusive results (about 3%) are left out. Calls follow the shape of the dose curve; as a rule, active = well fitted inhibition curve with a large enough effect; inconclusive = small, poorly fitted or top-dose-only effect; inactive = no such curve, though single readings can be large or run the other way. The list shows a part of the results.

experiment: Primary qHTS assay for Inhibitors of ovarian cancer metastasis using an organotypic tumor microenvironment (TME) model.; also: nearly all actives have a fitted effect of over 65% in size;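 as to activity change, negative = inhibition: plate controls were DMSO wells for no effect and tomatine positive control wells for full effect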; details: SKOV3ip1-GFP adhesion/invasion on 3D omental model, fluorescence; series mostly up to 45.8 µM; activity change, negative = inhibition: at the top concentration
Method in brief: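 A 3D layer of primary human omental fibroblasts, mesothelial cells, fibronectin and collagen I, grown 48 hr, received SKOV3ip1-GFP cells in serum-free medium plus compounds at 0.36-46 umol/L. After 2 hr RT and 16 hr 37 C, fixed adherent GFP cells were counted; normalized to DMSO and tomatine.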

Activity change, negative = inhibition, inactive:
CC(C)c1ccc(S(=O)(=O)N2CCC(N3CCN(Cc4ccccc4)C(=O)C3=O)CC2)cc1 -2.82%
CCOc1ccc(-c2nc(CSCC(=O)NCCc3ccc(OCC)c(OCC)c3)c(C)o2)cc1 -6.21%
COc1ccccc1-c1c(C)nn2c(N3CCN(c4ccccc4)CC3)cc(C)nc12 2.47%
CCn1c(=O)c(=O)n(CC)c2cc(N3CCCCC3)c(NC(=O)c3ccccc3OC)cc21 -1.74%
CCCN1CCN(CC2=C(C(=O)OCC)C(c3ccc(OC(C)C)cc3)NC(=O)N2)CC1 (stereo not given) -1.23%
COc1cccc(CNC(=O)C(=O)NCC(c2ccc3c(c2)OCO3)N2CCOCC2)c1 (stereo not given) -5.24%
CCCOC1(C(F)(F)F)NC(=O)N(c2cccc(Cl)c2)C1=O (stereo not given) 25%
CCC(C)NC(=O)CSc1c2c(nc3cc(Cl)ccc13)CCCC2 (stereo not given) 3.12%
COc1ccc(OC)c(CNC(=O)CN2N=C(c3ccc(Cl)cc3)CCC2=O)c1 -9.22%
O=C(NCCc1ccc(Cl)cc1)C(=O)NCC(c1cccs1)S(=O)(=O)c1cccs1 (stereo not given) 5.65%
COc1ccc(-n2nc3cc(C)c(NC(=O)Cc4ccc(Cl)cc4)cc3n2)cc1 -6.27%
CCOc1ccc(NC(=O)CSc2nnc(CNC(=O)C34CC5CC(CC(C5)C3)C4)n2CC)cc1 17.3%
CCOC(=O)c1ccccc1NC(=O)Nc1cc2c(cc1N1CCCC1)n(C)c(=O)n2C -6.06%
CCCc1cc(=O)[nH]c(Nc2cc(C)cc(C)c2)n1 -11.1%
COc1cc(C(=O)N(Cc2ccc(N(C)C)cc2)CC2CCCO2)cc(OC)c1OC (stereo not given) -13.5%
COc1cccc(Cn2c(C)c(CNC3CCCCC3)c(C(=O)O)c2C)c1 1.94%
CCCC12CN3CC(CCC)(CN(C1)C3c1ccc(OC(C)C)cc1)C2=O (stereo not given) -4.07%
CCc1ccc(NC(=O)CSc2nc(-c3cccc(OC)c3)nc3c2Cc2c(CO)cnc(C)c2O3)cc1 19.6%
O=C(NCCc1ccccc1)c1ccc(Cn2c(SCc3ccccc3F)nc3cccnc32)cc1 -7.19%
COc1ccc(NC(=O)c2oc3ccccc3c2NC(=O)Cc2coc3ccc(C)cc23)cc1 7.99%
Cc1ccc2nc(-c3ccc(C)o3)c(Nc3ccc4c(c3)OCCO4)n2c1 -6.71%
Clc1ccccc1CSc1nnc(C2CCNCC2)o1 -5.79%
CCOc1ccc(NC(=O)CCCOc2cc(=O)n(C)c3ccccc23)cc1 -6.14%
COc1ccc(N2CC(NC(=O)C3CCCCC3)CC2=O)cc1OC (stereo not given) 18%
Cc1nc(SCC(=O)Nc2nsc(-c3ccc(C(C)(C)C)cc3)n2)c2c3c(sc2n1)CCCC3 3.47%
COc1ccc(N2CCN(S(=O)(=O)CCNC(=O)Cc3ccc(OC)c(OC)c3)CC2)cc1 2.35%
O=C(CSc1nc2ncccc2o1)Nc1cccc(C(F)(F)F)c1 0.293%
O=C(Cn1c(=O)n(-c2ccccc2)c(=O)c2ccc(C(=O)NCc3ccc4c(c3)OCO4)cc21)Nc1ccc(Br)cc1 -2.63%
CCCCN(CC)C(=O)c1nn(-c2ccc(OC)cc2)c(=O)c2c1c1ccccc1n2C 56.9%
COc1ccc(OC)c(CNC(=O)c2ccc3c(c2)c(C)c(C)n3C)c1 -7.89%
COC(=O)c1ccc(NC(=O)CCc2c(C)nc3c(c(C)nn3C(C)(C)C)c2C)cc1 6.81%
COc1ccc(OC)c(CNC(=O)c2nn(C)c3c2CS(=O)(=O)c2ccccc2-3)c1 -3.79%
CN(C)C(=O)c1ccc2c(c1)N(CC(=O)NCc1ccccc1Cl)C(=O)C1CCCCN21 (stereo not given) -7.92%
Cc1ccccc1CSc1nc(-c2cccc(F)c2)nc2c1Cc1c(CO)cnc(C)c1O2 5.41%
CC(=O)Nc1ccc(Nc2ncnc3c2cnn3C)cc1 1.13%
COc1ccccc1-c1noc(CCCC(=O)Nc2cccc(C(F)(F)F)c2)n1 -6.85%
CCOC(=O)c1c(NC(=O)c2cc(OC)c(OC)c(OC)c2)sc2c1CCCC2 -2.53%
Cc1ccc(C)n1-c1nnc(N2CCCC(C(=O)Nc3ccccc3Br)C2)s1 (stereo not given) -8.86%
CCCN(CCC)C(=O)Cn1c(=O)n(CCCCCC(=O)NCc2ccc3c(c2)OCO3)c(=O)c2sccc21 -2.87%
C[C@@H](NC(=O)c1ncnc(N)c1Cl)c1ncc(C(=O)Nc2cc(C(F)(F)F)c(Cl)cn2)s1 1.28%
COc1ccc(NC(=O)CCCn2c(=O)c3cccn3c3cccnc32)cc1Cl -4.5%
COc1ccc(-c2cn3nc(N4CCC(C(=O)Nc5cc(Cl)ccc5C)CC4)sc3n2)cc1 13.5%
Cc1ccc(NC(=O)Cn2cnc3onc(-c4ccc(F)cc4)c3c2=O)c(Cl)c1 14.7%

outcome, inactive:
C=Cc1ccc(Cn2c(C(=O)O)c(CNC3CCCCC3)c3ccc(OC)cc32)cc1
O=C(Nc1ccc2nc(SCC(=O)N3CCOCC3)sc2c1)c1ccc(Br)cc1
Cc1cc2oc(C(=O)Nc3cccc(-c4nc5ccccc5o4)c3)c(C)c2cc1C
COc1ccc(-c2noc(-c3ccc(N4CCN(c5ccccc5OC)CC4)c([N+](=O)[O-])c3)n2)cc1
Cc1c(C(=O)N(C)C)sc2c1c(=O)n(-c1ccc(Cl)c(Cl)c1)c(=O)n2CC(=O)N1CCCCC1C (stereo not given)
CC(Oc1ccccc1)C(=O)Nc1ccccc1C(=O)OCc1cc(=O)n2nc(C(C)C)sc2n1 (stereo not given)
O=C(CSc1nc(=O)n(Cc2ccncc2)c2c1CCC2)Nc1ccc(F)cc1F
CCCN1CN=C(NS(=O)(=O)c2ccc(NC(C)=O)cc2)NC1
COc1ccc(N2CCN(C(=O)CN3C(=O)COc4ccc(S(=O)(=O)N5CCC(C)CC5)cc43)CC2)cc1
O=C(c1cnc2c(c1)COc1ccc(Cl)cc1-2)c1ccccc1O
CCOc1cc(CNC(=O)c2ccc3nc(C(C)C)oc3c2)cc(OCC)c1OCC
Cc1ccc(C)c(N2CCN(C(=O)c3cc4c(=O)oc5ccccc5c4s3)CC2)c1
Cc1ccc2occ(-c3cc(-c4ccc(F)cc4)nc4c3COc3ccc(F)cc3-4)c(=O)c2c1
CC1CCN(c2ncnc3c2c(-c2ccccc2)cn3-c2ccc(Br)cc2)CC1
CCOc1ccccc1CNC(=O)c1oc2c(c1C)-c1[nH]ncc1CC2
CC(C)(C)c1ccc(OCC(=O)NCC2(N3CCOCC3)CCCCC2)cc1
O=C(CN1C(=O)C2(SCC(=O)N2c2cccc(Cl)c2)c2ccccc21)NCc1ccccc1 (stereo not given)
